Results from the supplement of paper PMC3334620.
In all, about 33,000 sequences were measured (“E-score (-0.5 to 0.5)”: median about -0.01, highest 2% from about 0.26 on). Some of the results follow.

molecular target: Ste12 (UniProt P13574); experiment: PBM E-score (8-mer binding enrichment) (E-score (-0.5 to 0.5)); higher = stronger / more preferred TF binding; most listed sequences are background and not binding sites; conditions: protein concentration: 200 nM; construct: GST-DNA-binding domain
Outline: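 Masliner-normalised scans of fluorescent anti-GST signal were the basis for scoring. That signal came from GST-tagged yeast transcription factors applied at about 100-200 nM to double-stranded universal all-10-mer Agilent arrays on fresh or once-stripped slides. Each ungapped eight-base word, pooled with its reverse complement, received an E-score from the Universal PBM Analysis Suite.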

Row | Sequence | PBM E-score
1 | ATAGACAA | -0.00012
2 | AGTTGCGC | -0.0533
3 | TCACATGA | -0.0361
4 | GAATACGA | 0.112
5 | GGGGACAA | 0.0866
6 | AACTACTG | -0.0535
7 | CACGAGTA | -0.0155
8 | AAGTTAGT | -0.0238
9 | ACAGGGTA | -0.0612
10 | GGGGGGGA | -0.298
11 | AAGTAACG | 0.141
12 | GGGGGTAA | 0.017
13 | GGATTGAA | 0.0779
14 | AGGCGTTC | -0.164
15 | ATTCGAGC | -0.143
16 | TATAGACA | -0.0568
17 | GTATGAAA | 0.338
18 | GATGAGGA | -0.072
19 | ATCGCCCA | -0.129
20 | CTGACGTC | -0.0868
21 | GAGAGATC | -0.0454
22 | AATTGGGT | 0.235
23 | TCGATGCA | 0.0454
24 | AAATCGAC | 0.0499
25 | AAACGCTC | 0.0194

Row | Sequence | PBM E-score
26 | CGTAGCAC | -0.026
27 | AGACAAGC | -0.0877
28 | CTTCGGAC | -0.171
29 | TGATACCA | -0.0783
30 | ATCATTGC | -0.039
31 | GCGGCGAC | 0.0909
32 | ACAACCAC | 0.121
33 | CCACCGGA | 0.183
34 | CCTCATAA | 0.0824
35 | AGTTGGTG | -0.0916
36 | ACATGGCT | -0.129
37 | ATGGATTA | -0.176
38 | ACTCTGGG | -0.167
39 | AGCGCTCG | -0.0848
40 | CCTCGCAC | 0.064
41 | TCTGACCA | -0.0404
42 | CTTCTCAC | 0.0653
43 | CGACCCAG | 0.0732
44 | CCCTCGGA | 0.101
45 | CAGGCCGA | 0.124
46 | ACAACGAT | -0.0524
47 | ACACGACA | 0.109
48 | TCCGTAAA | 0.102
49 | GTAGAGCA | -0.216
50 | AGCCGGCG | 0.106

Row | Sequence | PBM E-score
51 | ATCGCTGC | 0.03
52 | ATGCAATG | -4e-05
53 | CCGGGGGA | 0.0425
54 | AGACAGGA | 0.118
55 | GAGGCATC | -0.157
56 | TGCAGCAA | 0.0678
57 | GAAACGCC | 0.288
58 | AGTTTCGG | 0.217
59 | ATTATGGA | 0.135
60 | AAATGGGT | 0.105
61 | CTGATCTC | -0.121
62 | CAAATCTC | 0.0124
63 | GCACAACC | -0.122
64 | CAGTTGCC | 0.0207
65 | GGGGTTTA | 0.00666
66 | ACCCTACT | -0.268
67 | AAGGGGCA | -0.132
68 | CTTCCTTA | -0.0663
69 | CCCTGTGC | 0.0789
70 | GATGTTGA | -0.0544
71 | CAAGCTGA | 0.0548
72 | CCAGTGAG | -0.25
73 | CCTGTCCA | -0.225
74 | AATCGTCC | -0.00603
75 | CCACCGCG | -0.0242

Row | Sequence | PBM E-score
76 | TACGTCGA | 0.0119
77 | TACTCCGA | -0.0128
78 | CTAACATC | 0.0222
79 | ACAAGGCT | -0.224
80 | GCCCGGAA | 0.11
81 | ACGTCCTG | -0.0264
82 | CAGAATAG | 0.111
83 | CTGGGATC | -0.268
84 | TAAAGCCA | -0.0183
85 | TCATGTCA | -0.108
86 | CCAAGTCC | -0.166
87 | AAGGCGCC | -0.105
88 | CATTATAC | 0.171
89 | CTCATTCA | 0.0934
90 | ATGAGCCC | -0.163
91 | GCGTTGGA | -0.11
92 | CCAGCCTC | -0.182
93 | CTTAAGAA | 0.0922
94 | GAGCCTGC | -0.0484
95 | AAACGGAC | 0.149
96 | ATGTCGAG | -0.11
97 | GGTCGAGA | -0.125
98 | ACGATCCG | 0.00957
99 | ATTGCGTG | 0.018
100 | ACCACAAG | -0.0155

Row | Sequence | PBM E-score
101 | CGGTCCGC | -0.00204
102 | TTAGCTAA | -0.0555
103 | ACTACAAA | 0.157
104 | CCAAGAAC | -0.11
105 | AGTTCAAT | -0.0355
106 | CCGCCTAC | -0.104
107 | ACCTAATG | -0.134
108 | GTCCACAA | 0.039
109 | GCACACAC | -0.164
110 | AAGTAATA | 0.0885
111 | TCCTGAGA | 0.0959
112 | AGAGGATC | -0.23
113 | CCCAAAAA | 0.102
114 | TAATCGTA | 0.06
115 | ATCTTTAC | 0.128
116 | CAATACTG | 0.00586
117 | GATTCTGA | 0.0395
118 | CTTGCAGC | -0.116
119 | AACGTAAG | -0.0237
120 | ATCGGATG | 0.145
121 | GCGTACAC | -0.151
122 | AACTGACT | -0.195
123 | ATTAGATC | 0.0593
124 | GCAAGCTA | -0.19
125 | CACCTACA | -0.0138

Row | Sequence | PBM E-score
126 | AGTATGTC | -0.00577
127 | GCCCAAAC | 0.0443
128 | GAAATATC | 0.0344
129 | AAGTCAGA | 0.0896
130 | CACGGTCA | 0.137
131 | AAGCTTGA | -0.0255
132 | ACCTACTC | 0.024
133 | AGCCGGCC | 0.0885
134 | ATAAGCTA | -0.0554
135 | CGCCAGTC | -0.0744
136 | ACTTGCAG | -0.0292
137 | CTTAACCC | -0.217
138 | ATTGCGTC | 0.0435
139 | CACCCAAC | -0.0687
140 | AACTTATG | 0.0251
141 | CGTAATTC | 0.0769
142 | TTGAAAAA | 0.323
143 | AAAGTCTT | 0.0182
144 | ACTCTACT | 0.123
145 | ACGACGAA | -0.0244
146 | AGAGAAGA | -0.0389
147 | CCCCCAGA | -0.226
148 | ACCTTGCA | -0.206
149 | CCGTGATC | 0.00579
150 | ACCAGCGG | -0.0794

Row | Sequence | PBM E-score
151 | GTATGCCA | -0.225
152 | ACTTTCCC | 0.152
153 | CTTGTTTA | 0.0423
154 | AACGCGGT | 0.0965
155 | CAATCTTA | -0.06
156 | TCAACGAA | 0.00866
157 | ATGGCCAG | 0.0154
158 | AGCGAAAA | 0.107
159 | AGGTAACT | -0.0845
160 | CCTCAAGA | -0.0527
161 | AAAGAGAA | 0.0447
162 | CCCTTTCC | -0.117
163 | ACCAACAA | 0.269
164 | ATCAGCCA | -0.0331
165 | TACGGGGA | 0.107
166 | AGGCCATC | -0.00368
167 | AAATGGAC | 0.0323
168 | AGCAGTTC | -0.102
169 | TCAGGTAA | 0.189
170 | CGTTATAA | 0.143
171 | CTTCGCGA | -0.0688
172 | CGCGTAAC | -0.00729
